# From PubChem BioAssay AID2147 (National Center for Advancing Translational Sciences (NCATS), 2009)
# The campaign covered roughly 230,000 compounds. About 3,600 (1.6%) were called active. Inconclusive means that the source gave no clear call. Such entries were picked first, then a sample of the others. Calls come from the whole dose curve; as a rule, active = well fitted inhibition curve with a large enough effect (not every such curve was filed as active); inconclusive = small, poorly fitted or top-dose-only effect, or another doubt; inactive = no such curve, though single readings can be large or run the other way. A potency beside an inconclusive call is a rough fit, not a confirmed value.
# Target: Lysine-specific demethylase 4E (Homo sapiens) (UniProt B2RXH2)
# Sequence of UniProt B2RXH2 (B2RXH2 whole entry, looked up, the tested form may be a part): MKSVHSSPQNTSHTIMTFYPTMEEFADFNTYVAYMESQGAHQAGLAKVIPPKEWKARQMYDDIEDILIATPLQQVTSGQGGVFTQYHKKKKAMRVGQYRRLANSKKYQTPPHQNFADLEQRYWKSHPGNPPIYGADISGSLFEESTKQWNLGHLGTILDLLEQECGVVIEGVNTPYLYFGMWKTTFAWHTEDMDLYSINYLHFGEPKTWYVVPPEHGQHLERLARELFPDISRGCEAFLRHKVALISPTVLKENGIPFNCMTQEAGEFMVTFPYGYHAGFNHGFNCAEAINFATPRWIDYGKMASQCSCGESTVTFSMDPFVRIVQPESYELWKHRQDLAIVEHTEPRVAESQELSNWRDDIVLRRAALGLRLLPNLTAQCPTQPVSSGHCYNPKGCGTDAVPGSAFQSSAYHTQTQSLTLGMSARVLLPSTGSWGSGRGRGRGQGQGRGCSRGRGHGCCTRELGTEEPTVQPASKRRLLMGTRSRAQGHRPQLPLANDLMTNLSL
# Assay: qHTS Assay for Inhibitors of Human Jumonji Domain Containing 2E (JMJD2E)
# Details: JMJD2E catalytic domain, FDH-coupled NADH fluorescence (FDH is formaldehyde dehydrogenase); series mostly up to 57.1 µM; activity change, negative = inhibition: at the top concentration
# Note: nearly all actives have a fitted effect of over 50% in size.
# Potency is the fitted concentration of half-maximal effect; tags give direction and shape of the fitted curve.
# 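Throughout, for activity change, negative = inhibition: 0% = wells with enzyme and -100% = buffer wells without enzyme.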
SMILES,"activity change, negative = inhibition",Potency
CCN1CCN(c2ccc([N+](=O)[O-])c(Sc3nc4ccccc4[nH]3)c2)CC1,inactive: -2.68%,
COc1ccc(C2=NN(c3nc4ccccc4s3)C(=O)/C2=C\N(C)C)cc1,,"inconclusive: 39.8 µM [inhibitor, single point]"
CC(=O)C1=C(O)C(=O)N(Cc2cccnc2)C1c1ccccc1 (configuration not stated),,"inconclusive: 39.8 µM [inhibitor, single point]"
O=C(O)CCC(=O)N1N=C(c2ccco2)CC1c1cccs1 (configuration not stated),,"inconclusive: 25.1 µM [inhibitor, single point]"
Nc1nnc(-c2cc3c(ccc4ccccc43)oc2=O)s1,,"inconclusive: 5.97 µM [inhibitor, partial curve]"
O=C1c2oc3ccc(Cl)cc3c(=O)c2C(c2ccco2)N1CCN1CCOCC1 (configuration not stated),,"inconclusive: 17.8 µM [inhibitor, partial curve]"
C=CCOC(=O)c1cc(-c2ccc(/C=C3\C(=O)NC(=O)C(C#N)=C3C)o2)ccc1Cl,,"inconclusive: 39.8 µM [inhibitor, single point]"
COc1ccccc1-c1ccc(/C=C2/C=C(C)OC2=O)o1,,"inconclusive: 28.2 µM [inhibitor, partial curve]"
COc1ccc(Cn2nnnc2CN(Cc2cc3cc(C)ccc3[nH]c2=O)C2CCCC2)cc1,,"inconclusive: 39.8 µM [inhibitor, single point]"
CNCCOc1ccccc1OC(C)C,,"inconclusive: 28.2 µM [inhibitor, single point]"
COCCCNC(=O)c1c(NC(=O)c2cccs2)sc2c1CCCC2,,"inconclusive: 35.5 µM [inhibitor, partial curve]"
COc1cc2c(cc1/C=C/C(=O)O)OC(C)C2 (configuration not stated),,"inconclusive: 28.2 µM [inhibitor, partial curve]"
CN(C)C(=O)N1CCN(C(=O)N(C)C)CC1,inactive: 3.34%,
O=C(c1ccc2c3c(cccc13)CC2)C1CCCN(Cc2ccncc2)C1 (configuration not stated),,"inconclusive: 31.6 µM [inhibitor, partial curve]"
Cc1ccc(-n2nnc(-c3cc4ccccc4nc3Cl)n2)cc1,,"inconclusive: 17.8 µM [inhibitor, partial curve]"
O=C(CCC1CCCC1)N1CCC(N2CCN(c3ccccc3)CC2)CC1,,"inconclusive: 39.8 µM [inhibitor, single point]"
O=C(Cn1nnc2ccccc2c1=O)Nc1cccc(S(=O)(=O)N2CCOCC2)c1,,"inconclusive: 22.4 µM [inhibitor, single point]"
CCCCCc1cc(=O)oc2c(C(CCN3CCCCC3)c3ccc(OC)cc3)c(OC)cc(OC)c12 (configuration not stated),,"inconclusive: 31.6 µM [inhibitor, single point]"
O=C(Nc1ccccc1N1CCN(c2ccccc2)CC1)c1cccc(F)c1,,"inconclusive: 39.8 µM [inhibitor, single point]"
COc1ccc(CC(=O)Nc2ccccc2C(=O)N2CCOCC2)cc1,inactive: 5.12%,
CCn1c(SCC(=O)O)nnc1-c1cc2c(C)nn(-c3ccccc3)c2s1,,"inconclusive: 35.5 µM [inhibitor, single point]"

SMILES,"activity change, negative = inhibition",Potency
COC(=O)C(C)Sc1ccc2nnc(CCNS(=O)(=O)c3ccc(C)cc3)n2n1 (configuration not stated),,"inconclusive: 39.8 µM [inhibitor, single point]"
C=CCn1c2ccccc2n2nc(C)c(=O)nc12,,"inconclusive: 22.4 µM [inhibitor, partial curve]"
COC(=O)/C=C/C(=O)N1CCN(c2ccccc2)CC1,inactive: -5.7%,
CC(=C/C(=O)O)/C=C/c1ccc(Cl)o1,,"inconclusive: 28.2 µM [inhibitor, single point]"
O=C(NCc1ccccc1)c1cccc(COc2ccc3c(c2)CCC3)c1,,"inconclusive: 39.8 µM [inhibitor, single point]"
CCOC(=O)c1cc2c(ccn2C)n1CC(=O)N1CCN(c2ccccc2OC)CC1,,"inconclusive: 25.1 µM [inhibitor, single point]"
Nc1cccc2c1C(=O)N(C(=O)/C=C/c1cccc(F)c1)C2=O,,"inconclusive: 15.8 µM [inhibitor, partial curve]"
C#CCOCCOCCOCCNc1nc(N2CCN(C(=O)[C@H](Cc3ccc(O)cc3)n3cc([C@@H](N)C(C)CC)nn3)CC2)nc(N2CCN(C(=O)[C@H](Cc3cc4ccccc4[nH]3)n3cc([C@@H](N)Cc4ccc(O)cc4)nn3)CC2)n1 (some centres not stated),,"inconclusive: 39.8 µM [inhibitor, single point]"
O=C(c1nc2nc(-c3cccs3)cc(C(F)(F)F)n2n1)N1CCN(Cc2ccccc2)CC1,,"inconclusive: 28.2 µM [inhibitor, partial curve]"
Cn1cccc1Cc1nnc(SCC(=O)NCCc2ccccc2)n1C,,"inconclusive: 35.5 µM [inhibitor, single point]"
CCCCc1ccc(N/C(N)=N/c2nc(C)cc(C)n2)cc1,inactive: -5.01%,
O=C1CCCC2[C@@H]3CCC[N@+]4([O-])CCC[C@H](CN12)C34 (some centres not stated),inactive: -3.3%,
CCN(CC)CCCN1C(=O)c2oc3ccccc3c(=O)c2C1c1cccs1 (configuration not stated),,"inconclusive: 28.2 µM [inhibitor, single point]"
O=C1CC(N2CCOCC2)C(=O)N1c1cc(Cl)cc(Cl)c1 (configuration not stated),inactive: -0.77%,
N#Cc1cccc(C(c2nnnn2Cc2ccccc2)N2CCCC2)c1 (configuration not stated),inactive: -1.84%,
O=C(Nc1nc2ccc(F)cc2s1)c1cccc(S(=O)(=O)N2CCc3ccccc32)c1,,"inconclusive: 31.6 µM [inhibitor, partial curve]"
COC(=O)c1ccccc1NC(=O)Cn1nnc(-c2ccc(OC)cc2)n1,,"inconclusive: 39.8 µM [inhibitor, single point]"
COC(=O)c1ccccc1NC(=S)NC(=O)c1ccccc1,,"inconclusive: 20 µM [inhibitor, partial curve]"
CCc1cc(=O)oc2cc3oc(C)c(C)c3cc12,,"inconclusive: 17.8 µM [inhibitor, partial curve]"
C[C@@H](CO)NC(=O)c1ccc2c3n(nc2c1)-c1ccccc1CO3,,"inconclusive: 31.6 µM [inhibitor, partial curve]"
CCN(CC)C(=O)C1CCCN(c2ccc([N+](=O)[O-])cc2/C=N/NC(=O)c2ccc([N+](=O)[O-])cc2)C1 (configuration not stated),inactive: 3.84%,
